The values that follow come from PubChem BioAssay AID1259407 (Chemical Carcinogenesis Research Information System (CCRIS), 2018).

The data set relates to CCRIS mutagenicity, Ames/micronucleus/aberration tests. Description: CCRIS mutagenicity studies.
Setting [1] is: End Point: IN VITRO CHROMOSOMAL ABERRATIONS, Test System: CHL CELLS, Metabolic Activation: NONE.
The mark [2] stands for this setting: End Point: IN VITRO CHROMOSOMAL ABERRATIONS, Test System: CHO CELLS, Metabolic Activation: NONE.
The mark [3] stands for this setting: Test System: MOUSE LYMPHOMA, Strain/Indicator: L5178Y (TK+/TK-), Metabolic Activation: RAT, LIVER, S-9, AROCLOR 1254, Method: SUSPENSION/PLATE.
Setting [4] is: Test System: MOUSE LYMPHOMA, Strain/Indicator: L5178Y (TK+/TK-), Metabolic Activation: NONE, Method: SUSPENSION/PLATE.
The mark [5] stands for this setting: Test System: AMES SALMONELLA TYPHIMURIUM, Strain/Indicator: TA100, Metabolic Activation: RAT, LIVER, S-9, AROCLOR 1254, Method: STANDARD PLATE.

Structures are written as SMILES. Entries after “also recorded” stand apart in the source; their conditions may differ. Some entries of the source have several records that differ or are many. They are shown here; other results are not. No rule for the calls is given here. There may be further records. Values that stand side by side do not match, cause unknown; they may come from other doses, times, organisms or constructs than stated. Marks in square brackets tell the records apart. Letters hold for one entry only. Counts like (3×) stand for listed records that agree.

Consider `Cc1ccc(N=C=O)cc1N=C=O`, for which the mutagenic call under setting [1] was “inactive; negative; also recorded: inactive; negative; authors report equivocal results for ploidy changes at 0.1 mg/ml”; the mutagenic call under setting [2] was “inactive; negative; precipitation occurred at 500 and 750 ug/ml; also recorded: inactive; negative; precipitation occurred at all doses”; the mutagenic call (Test System: AMES SALMONELLA TYPHIMURIUM, Strain/Indicator: TA100, Metabolic Activation: RAT LIVER S-9, PHENOBARBITAL AND BETA-NAPHTHOFLAVONE, Method: PREINCUBATION) is “inactive; negative and active; positive”.

As to `C[Si](C)(C)N[Si](C)(C)C`, the mutagenic call under setting [3] was “inactive; negative. reevaluation of results: inconclusive; also recorded: inactive; negative. reevaluation of results: negative”.

On to `Oc1cc(Cl)ccc1Oc1ccc(Cl)cc1Cl`, for which the mutagenic call was “active; positive (structural); also recorded: inactive; negative; also recorded: active; positive (structural), weak response” (End Point: In vitro chromosomal aberrations, Test System: Chinese hamster V79 cells, Metabolic Activation: None) and “inactive; negative (2×); also recorded: active; positive (structural), weak response” (End Point: In vitro chromosomal aberrations, Test System: Chinese hamster V79 cells, Metabolic Activation: S-9).

In the case of `O=C1CCCCC1`, for the setting “End Point: In vitro micronucleus, Test System: Bovine peripheral lymphocytes, Metabolic Activation: None”, the mutagenic call was “inactive; negative; also recorded: inactive; negative; authors describe as weak activity based on 2 non-dose related positive”.

Consider `Oc1ccc2ccccc2c1N=Nc1ccc(N=Nc2ccccc2)cc1`, for which the mutagenic call is, setting by setting: (Test System: AMES SALMONELLA TYPHIMURIUM, Strain/Indicator: TA98, Metabolic Activation: RAT, LIVER, S-9, PCB, Method: PREINCUBATION) “inactive; negative (2×) and active; positive”; (Test System: AMES SALMONELLA TYPHIMURIUM, Strain/Indicator: TA100, Metabolic Activation: RAT, LIVER, S-9, PCB, Method: PREINCUBATION) “inactive; negative (2×) and active; positive”.

Take `C=C1[C@@H](O)[C@@H]2O[C@]3(CC[C@H](/C=C/[C@@H](C)[C@@H]4CC(C)=C[C@@]5(O[C@H](C[C@@](C)(O)C(=O)O)CCC5O)O4)O3)CC[C@H]2O[C@@H]1[C@@H](O)C[C@H](C)[C@H]1O[C@@]2(CCCCO2)CC[C@H]1C` (some centres not stated): for the setting “End Point: In vivo micronucleus, Test System: Colon epithelial cells, Species: Mouse, Strain/Sex: Swiss/Female, Route: Oral”, the mutagenic call was “active; positive; also recorded: inactive; negative, doses >/= 435 ug/kg were lethal”.

In the case of `O=C1OC2(c3ccccc31)c1cc(I)c(O)c(I)c1Oc1c2cc(I)c(O)c1I`, the mutagenic call is, setting by setting: under setting [4], “inactive; negative [study A]; also recorded: active; positive. reevaluation of results: positive [study B]”; under setting [3], “active; positive. reevaluation of results: positive [study A]; also recorded: active; positive [study B]”.

For `O=[N+]([O-])c1ccc(Cl)c([N+](=O)[O-])c1`, the mutagenic call is “active; positive and inactive; negative and active; positive (results of retest)” (Test System: Ames Salmonella typhimurium, Strain/Indicator: TA1537, Metabolic Activation: None, Method: Preincubation); “active; positive (2×) and inactive; negative” (Test System: E.coli, Strain/Indicator: WP2uvrA/pKM101, Metabolic Activation: None, Method: Preincubation); “active; positive (2×) and inactive; negative” (Test System: E.coli, Strain/Indicator: WP2uvrA/pKM101, Metabolic Activation: Rat, Liver, S9, Sodium phenobarbital and 5,6-benzoflavone (10%), Method: Preincubation).

For the molecule `C=CC(=O)OCC(CC)(COC(=O)C=C)COC(=O)C=C`, under “Test System: AMES SALMONELLA TYPHIMURIUM, Strain/Indicator: TA1535, Metabolic Activation: RAT, LIVER, S-9, AROCLOR 1254, Method: STANDARD PLATE”, the mutagenic call is “inactive; negative [study A] and active; positive [study B] and inactive; negative [study B]”.

Turning to `O=c1c(O)c(-c2ccc(O)cc2)oc2cc(O)cc(O)c12`, the mutagenic call is “active; positive [study A] and inactive; negative [study B]” (Test System: AMES SALMONELLA TYPHIMURIUM, Strain/Indicator: TA100, Metabolic Activation: HAMSTER, LIVER, S-9, AROCLOR 1254, Method: STANDARD PLATE); “active; positive [study A] and active; positive [study B] and inactive; negative [study C]” under setting [5].

For the molecule `O=C(O)CBr`, the mutagenic call (Test System: AMES SALMONELLA TYPHIMURIUM, Strain/Indicator: TA98, Metabolic Activation: NONE, Method: PREINCUBATION) was “inactive; negative [study A] and active; positive [study B]”.

On to `CC(=O)CC(=O)Nc1ccccc1`, for which the mutagenic call (End Point: In vitro chromosomal aberrations, Test System: Chinese hamster lung (CHL/IU) cells, Metabolic Activation: None) is “inactive; negative (2×); also recorded: inactive; negative. toxicity at 2 highest doses”.

On to `CCOc1ccc(NC(C)=O)cc1N`, for which the mutagenic call was “active; positive [10 to 10000 µg/plate] and inactive; negative [3.3 to 10000 µg/plate]” (Test System: AMES SALMONELLA TYPHIMURIUM, Strain/Indicator: TA98, Metabolic Activation: NONE, Method: STANDARD PLATE); “inactive; negative [10 to 10000 µg/plate] and active; positive [3.3 to 10000 µg/plate]” (Test System: AMES SALMONELLA TYPHIMURIUM, Strain/Indicator: TA100, Metabolic Activation: HAMSTER, LIVER, S-9, Method: STANDARD PLATE); “inactive; negative [10 to 10000 µg/plate] and active; positive [3.3 to 10000 µg/plate]” under setting [5]; “active; positive [10 to 10000 µg/plate] and inactive; negative [10 to 3333.3 µg/plate]” (Test System: AMES SALMONELLA TYPHIMURIUM, Strain/Indicator: TA1537, Metabolic Activation: MOUSE, LIVER, S-9, Method: STANDARD PLATE); “inactive; negative [10 to 10000 µg/plate] and active; positive [10 to 3333.3 µg/plate]” (Test System: AMES SALMONELLA TYPHIMURIUM, Strain/Indicator: TA1537, Metabolic Activation: NONE, Method: STANDARD PLATE); “active; positive [10 to 10000 µg/plate] and inactive; negative [10 to 3333.3 µg/plate]” (Test System: AMES SALMONELLA TYPHIMURIUM, Strain/Indicator: TA1537, Metabolic Activation: RAT, LIVER, S-9, Method: STANDARD PLATE). Also, the mutagenic call (Test System: AMES SALMONELLA TYPHIMURIUM, Strain/Indicator: TA1538, Metabolic Activation: MOUSE, LIVER, S-9, Method: STANDARD PLATE) was “active; positive and inactive; negative”; the mutagenic call (Test System: E. COLI, Strain/Indicator: WP2 UVRA, Metabolic Activation: RAT, LIVER, S-9, AROCLOR 1254, Method: STANDARD PLATE) was “inactive; negative and active; positive”.

With `OB(O)O`, the mutagenic call (Test System: AMES SALMONELLA TYPHIMURIUM, Strain/Indicator: TA100, Metabolic Activation: NONE, Method: STANDARD PLATE) is “active; positive and inactive; negative”.

With `CN(C)[C@@H]1C(=O)C(C(N)=O)=C(O)[C@@]2(O)C(=O)C3=C(O)c4c(O)cccc4[C@@](C)(O)[C@H]3[C@H](O)[C@@H]12`, the mutagenic call under setting [4] is “active; positive [study A] and inactive; negative [study B]”.

On to `Nc1nc(Cl)nc2c1ncn2[C@H]1C[C@H](O)[C@@H](CO)O1`, for which, under “End Point: In vitro chromosomal aberrations, Test System: Human peripheral lymphocytes, Metabolic Activation: None”, the mutagenic call is “active; positive and inactive; negative”.

Regarding `O=C(O)C1C(C(=O)O)C2(Cl)C(Cl)=C(Cl)C1(Cl)C2(Cl)Cl` (configuration not stated), the mutagenic call by setting is: (End Point: IN VITRO CHROMOSOMAL ABERRATIONS, Test System: CHINESE HAMSTER LUNG FIBROBLAST CELLS (CHL/IU), Metabolic Activation: NONE) “inactive; negative; authors describe results as weakly positive at 24 hr; also recorded: inactive; negative”; under setting [2], “inactive; negative and active; positive”; (End Point: IN VITRO CHROMOSOMAL ABERRATIONS, Test System: CHO CELLS, Metabolic Activation: RAT, LIVER, S-9, AROCLOR 1254) “inactive; negative and active; positive”.

For `Cc1ccc(N)c(C)c1`, the mutagenic call under setting [1] is “active; positive (structural changes) and inactive; negative”.

In the case of `CC1CNCC(C)O1` (configuration not stated), the mutagenic call is, setting by setting: (Test System: AMES SALMONELLA TYPHIMURIUM, Strain/Indicator: TA1535, Metabolic Activation: HAMSTER, LIVER, S-9, AROCLOR 1254, Method: PREINCUBATION) “active; positive [333.3 to 10000 µg/plate] and inactive; negative [3333 to 33333 µg/plate]”; (Test System: AMES SALMONELLA TYPHIMURIUM, Strain/Indicator: TA1535, Metabolic Activation: NONE, Method: PREINCUBATION) “inactive; negative [100 to 10000 µg/plate] and active; positive [333.3 to 10000 µg/plate]”; (Test System: AMES SALMONELLA TYPHIMURIUM, Strain/Indicator: TA1535, Metabolic Activation: RAT, LIVER, S-9, AROCLOR 1254, Method: PREINCUBATION) “active; positive [333.3 to 10000 µg/plate] and inactive; negative [3333 to 33333 µg/plate]”.

As for `Nc1cc(Cl)nc(C(=O)O)c1Cl`, the mutagenic call (End Point: In vitro chromosomal aberrations, Test System: Primary rat lymphocytes, Metabolic Activation: None) is “inactive; negative; also recorded: active; positive (chromatid breaks) at doses producing a greater than or equal to 50% re”.

For the molecule `CC(=O)CN(CC(C)O)N=O` (configuration not stated), the mutagenic call (Test System: AMES SALMONELLA TYPHIMURIUM, Strain/Indicator: TA100, Metabolic Activation: NONE, Method: PREINCUBATION) is “inactive; negative [study A] and active; positive [study B] and active; positive [study C]”.

Regarding `O=[N+]([O-])c1ccc(Cl)cc1Cl`, the mutagenic call is “inactive; negative; authors report equivocal results for ploidy changes at 0.1 and 0.2 mg/; also recorded: inactive; negative; authors report equivocal results for ploidy changes at highest dose” under setting [1]; “inactive; negative and active; positive” (Test System: AMES SALMONELLA TYPHIMURIUM, Strain/Indicator: TA98, Metabolic Activation: RAT LIVER S-9, PHENOBARBITAL AND BETA-NAPHTHOFLAVONE, Method: PREINCUBATION).
